Biological target: CPA.7.048
Test: SPR

Kd: 19 nM
B1: human PVRIG fusion protein (Fc fusion)
chain: TPEVWVQVRMEATELSSFTIRCGFLGSGSISLVTVSWGGPNGAGGTTLAVLHPERGIRQWAPARQARWETQSSISLILEGSGASSPCANTTFCCKFASFPEGSWEACGSLPPSSDPGLSAPPTPAPILRAD[in this place human IgG1 Fc with changes]
modifications: Biotinylated in some assays. The protein acts as a bivalent Fc dimer; one chain is given.

— patent US20250333503A1 (published 2025)
